Some of the results follow. Most values come without repeats; read them as rough.
Assays:
Assay in all cases: cell count relative to DMSO control; melanoma cells; higher = more viable cells
Details in all cases: library dose: low library concentration; 72 h
WM115 = tested on: WM115
WM1716 = tested on: WM1716
WM1745 = tested on: WM1745
WM3526 = tested on: WM3526
WM3619 = tested on: WM3619
WM451Lu = tested on: WM451Lu
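Note: cell number obtained by counting DAPI-stained nuclei in high-throughput microscope images with image analysis software, screen run in 1,536-well plates.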

SMILES | cell count (WM115) [%] | cell count (WM1716) [%] | cell count (WM1745) [%] | cell count (WM3526) [%] | cell count (WM3619) [%] | cell count (WM451Lu) [%]
N#CC[C@H](C1CCCC1)n1cc(-c2ncnc3[nH]ccc23)cn1 [ruxolitinib] + Cn1cc(/C=C2\C(=O)Nc3cccnc32)c2ccccc21 [GW441756] (first compound 1 µM, partner dose 0.4 µM) | 101 | 117 | 97.9 | 114 | 104 | 106
N#CC[C@H](C1CCCC1)n1cc(-c2ncnc3[nH]ccc23)cn1 [ruxolitinib] + NC1(c2ccc(-c3nc4ccn5c(=O)[nH]nc5c4cc3-c3ccccc3)cc2)CCC1 [MK2206] (first compound 1 µM, partner dose 0.4 µM) | 87.1 | 104 | 84.6 | 89 | 94 | 91.7
Cc1cc(Nc2cc(N3CCN(C)CC3)nc(Sc3ccc(NC(=O)C4CC4)cc3)n2)n[nH]1 [Tozasertib] + C[C@]1(c2nc3c(C(N)=O)cccc3[nH]2)CCCN1 [Veliparib] (first compound 0.006 µM, partner dose 1.4 µM) | 84.6 | 78 | 79.9 | 97.9 | 65.4 | 113
N#CC[C@H](C1CCCC1)n1cc(-c2ncnc3[nH]ccc23)cn1 [ruxolitinib] + CS(=O)(=O)c1ccc(C(=O)Nc2ccc(Cl)c(-c3ccccn3)c2)c(Cl)c1 [vismodegib] (first compound 1 µM, partner dose 1 µM) | 106 | 114 | 107 | 114 | 75.1 | 82.2
Cc1cc(Nc2cc(N3CCN(C)CC3)nc(Sc3ccc(NC(=O)C4CC4)cc3)n2)n[nH]1 [Tozasertib] + CS(=O)(=O)c1ccc(C(=O)Nc2ccc(Cl)c(-c3ccccn3)c2)c(Cl)c1 [vismodegib] (first compound 0.006 µM, partner dose 1 µM) | 89.5 | 104 | 80.3 | 95.2 | 96.9 | 105
N#CC[C@H](C1CCCC1)n1cc(-c2ncnc3[nH]ccc23)cn1 [ruxolitinib] + OCCn1cc(-c2cnc3nnn(Cc4ccc5ncccc5c4)c3n2)cn1 [PF04217903] (first compound 1 µM, partner dose 1 µM) | 89.1 | 112 | 87.8 | 88.1 | 109 | 102
CC[C@]1(O)C[C@H]2CN(CCc3c([nH]c4ccccc34)[C@@](C(=O)OC)(c3cc4c(cc3OC)N(C=O)[C@H]3[C@@](O)(C(=O)OC)[C@H](OC(C)=O)[C@]5(CC)C=CCN6CC[C@]43[C@@H]65)C2)C1 [vincristine] + CCCCCCCCCCCCCCCCCCOP(=O)([O-])OC1CC[N+](C)(C)CC1 [Perifosine] (first compound 0.0001 µM, partner dose 0.4 µM) | 59 | 43.6 | 98.1 | 65 | 71.1 | 62.8
N#CC[C@H](C1CCCC1)n1cc(-c2ncnc3[nH]ccc23)cn1 [ruxolitinib] + Nc1ncn([C@H]2C[C@H](O)[C@@H](CO)O2)c(=O)n1 [decitabine] (first compound 1 µM, partner dose 0.1 µM) | 84.8 | 81.1 | 86 | 98.8 | 105 | 91.8
Cc1cc(Nc2cc(N3CCN(C)CC3)nc(Sc3ccc(NC(=O)C4CC4)cc3)n2)n[nH]1 [Tozasertib] + O=C(Nc1ccccc1)c1cc([N+](=O)[O-])ccc1Cl [GW9662] (first compound 0.006 µM, partner dose 2 µM) | 93.8 | 103 | 89.5 | 98.8 | 110 | 106
CC[C@]1(O)C[C@H]2CN(CCc3c([nH]c4ccccc34)[C@@](C(=O)OC)(c3cc4c(cc3OC)N(C=O)[C@H]3[C@@](O)(C(=O)OC)[C@H](OC(C)=O)[C@]5(CC)C=CCN6CC[C@]43[C@@H]65)C2)C1 [vincristine] + Nc1cccc2c1CN(C1CCC(=O)NC1=O)C2=O [lenalidomide] (first compound 0.0001 µM, partner dose 1 µM) | 52.6 | 43.3 | 82.9 | 71.4 | 56.7 | 63.5
CC[C@]1(O)C[C@H]2CN(CCc3c([nH]c4ccccc34)[C@@](C(=O)OC)(c3cc4c(cc3OC)N(C=O)[C@H]3[C@@](O)(C(=O)OC)[C@H](OC(C)=O)[C@]5(CC)C=CCN6CC[C@]43[C@@H]65)C2)C1 [vincristine] + O=C(Nc1cc(C(F)(F)F)cc(C(F)(F)F)c1)c1cc(Cl)ccc1O [IMD0354] (first compound 0.0001 µM, partner dose 0.016 µM) | 65.2 | 44.3 | 85 | 53.9 | 44.9 | 48.7
Cc1cc(Nc2cc(N3CCN(C)CC3)nc(Sc3ccc(NC(=O)C4CC4)cc3)n2)n[nH]1 [Tozasertib] + Nc1ccn([C@@H]2O[C@H](CO)[C@@H](O)C2(F)F)c(=O)n1 [gemcitabine] (first compound 0.006 µM, partner dose 0.0004 µM) | 100 | 101 | 57.5 | 98 | 79 | 113
CC[C@]1(O)C[C@H]2CN(CCc3c([nH]c4ccccc34)[C@@](C(=O)OC)(c3cc4c(cc3OC)N(C=O)[C@H]3[C@@](O)(C(=O)OC)[C@H](OC(C)=O)[C@]5(CC)C=CCN6CC[C@]43[C@@H]65)C2)C1 [vincristine] + Nc1ncn([C@H]2C[C@H](O)[C@@H](CO)O2)c(=O)n1 [decitabine] (first compound 0.0001 µM, partner dose 0.1 µM) | 50.2 | 50.2 | 94.5 | 63 | 87.7 | 57.9
Cc1cc(Nc2cc(N3CCN(C)CC3)nc(Sc3ccc(NC(=O)C4CC4)cc3)n2)n[nH]1 [Tozasertib] + O=C(O)c1ccc2c(c1)nc(Nc1cccc(Cl)c1)c1ccncc12 [CX4945] (first compound 0.006 µM, partner dose 0.4 µM) | 101 | 87.6 | 89.2 | 81.1 | 86.9 | 101
